Experimental data taken from patent publication US20080311122A1, “Antagonists of Hmgb1 and/or Rage and Methods of Use Thereof” (Medimmune, LLC, priority 2005, published 2008).

Assays:
[1] = target: T1, HMG1 peptides (Homo sapiens, UniProt P09429); experiment: HMG1 B Box and peptide mapping ELISA; type: binding; details: B Box peptide ELISA
T1 sequence (P09429 91-169 P98L): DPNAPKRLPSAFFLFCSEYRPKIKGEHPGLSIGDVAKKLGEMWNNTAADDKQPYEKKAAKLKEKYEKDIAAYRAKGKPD
Experimental: (§1) HMG1 B Box and Peptide Mapping: Individual wells of a 96-well immunoplate (EIA/RIA plate, High binding, Costar) were coated with HMG1 B Box peptide amino acids 91-169 (FIG. 5A) or amino acids 150-183 (FIG. 5B) at 10 μg/ml in PBS at 4° C. overnight. The plate was then blocked with 4% milk powder dissolved in PBS at 37° C. for 1 hour. The blocking solution was removed and replaced with human anti-HMG1 antibodies at various concentrations (see FIGS. 5A-B). The plate was then washed (ELX-405 Plate washer, BIO-TEK) and secondary antibody (anti-human IgG-HRP, PIERCE) was added at a final concentration of 1:125,000 at 37° C. for 1 hour. HRP activity was detected with Sureblue HRP substrate (KPL). Plates were read at 450 nm using a Kinetic Microplate Reader (Molecular Devices). To obtain more detailed peptide mapping information, similar ELISA assays were performed using 16 biotinylated overlapping peptides spanning the HMGB1 protein from amino acid 1 to 215 as follows, maxisorp microtiter plate was coated with 2 μg/ml of NeutroAvidin (Pierce) overnight at 4° C. After washing and blocking with 1% BSA in PBS, the biotinylated peptides were individually added into the avidin coated wells and incubated for 30 min at room temperature. […] Detection was accomplished by adding 50 μl of tetramethylbenzidine (TMB) substrate (KPL) and the absorbance was read at […]. […]

[2] = target: T2, HMG1 peptides (Homo sapiens, UniProt P09429); experiment: HMG1 B Box and peptide mapping ELISA; type: binding; details: B Box peptide ELISA; remark: listed apart in the source
T2 sequence (P09429 150-183): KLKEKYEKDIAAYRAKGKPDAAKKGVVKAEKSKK
Experimental: as §1

B1: S6: human anti-HMG1 antibody, ATCC PTA-6143; VL/VH aa SEQ ID NO: 9/11 (antibody, listed as Homo sapiens, V domains shown)
VH: EVQLLESGGGLVQPGGSLRLSCAASGFTFSWYDMSWVRQAPGKGLEWVSRISPSGGYTMYADSVKGRFTISRDNSKNTLYLQMNSLRAEDTAVYYCARLEVGATSGGTAFDIWGQGTMVTVSS
VL: [gap - about 100 residues]
binding to HMG1 peptide 91-169 [1]: do not bind either of the HMG1 B Box peptides
binding to HMG1 peptide 150-183 [2]: do not bind either of the HMG1 B Box peptides
